Source: patent publication US12569503B2, “Methods and compositions for substituted axially-chiral cannabinol analogs” (University of Florida Research Foundation, Inc., priority 2019, dated 2026)

Legend:
[1] = tested on: mice with chronic constriction injury (CCI) of the sciatic nerve; assay: Reversal of CCI-induced thermal hyperalgesia; format: in vivo; details: Table 4, reverse thermal hyperalgesia
[2] = tested on: C57bl/6j mice with chronic constriction injury of the sciatic nerve (CCI); assay: Reversal of CCI-induced mechanical allodynia (von Frey assay)
[3] = Reduction of body temperature (hypothermia); details: C57bl/6j, mouse, in vivo, Body Temp. ED50 ((95% CL) mg/kg), Table 1; decreasing body temperature, separate cohort of C57bl/6j mice

Row | Compound | Thermal Hyperalgesia ED50 ((95% CL) [1] [mg/kg] | Allodynia ED50 ((95% CL) ([2]; Table 4, reverse allodynia, CCI mice) [mg/kg] | ED50 [3] [mg/kg] | ED50 ([1]; Mus musculus, read-out: Thermal Hyperalgesia ED50 ((95% CL)) [mg/kg] | ED50 ([2]; Mus musculus, read-out: Allodynia ED50 ((95% CL) mg/kg)) [mg/kg]
1 | 10-methyl-CBN [ax-CBN] | 126.01 | 153.01 | – | – | –
2 | CCCCCc1cc(O)c2c(c1)OC(C)(C)[C@@H]1CCC(C)=C[C@@H]21 [THC, (−)-trans-Δ^9-tetrahydrocannabinol] | – | – | 21.2 | 15.9 | 30.3
